Experimental data as given in PubChem BioAssay AID651820 (National Center for Advancing Translational Sciences (NCATS), 2012).
The whole screen tested about 340,000 compounds, of which about 12,000 (3.5%) were called active. This list was built around the results that the source calls inconclusive (neither active nor inactive); the mix of calls is not that of the screen. The call rests on the fitted dose curve; in most records, active means well fitted inhibition curve with a large enough effect; inconclusive means small, poorly fitted or top-dose-only effect, or another doubt; inactive means no such curve, though single readings can be large or run the other way. Potencies of inconclusive entries are left out as doubtful fits.

Assay: qHTS Assay for Inhibitors of Hepatitis C Virus (HCV)
Conditions: Huh7.5.1 HCVcc-Cre (HCVcc is cell-culture hepatitis C virus) infection, luciferase reporter, 44 h; activity change, negative = inhibition: at 41.8 µM (top of the series) unless noted
Method in brief: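 Reporter virus HCVcc-Cre (~0.5 moi) infects cells exposed to compound; seeding density 1,000 cells/well with 4 h settling beforehand. Luminescence, 15 sec read, taken 44 h post-infection following a 15 min RT substrate incubation.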
On the % scale 0 is the no-effect control and ±100 the full control effect; potency means the concentration at half of the fitted maximal effect; tags describe the fitted curve by direction and shape.

| Compound | Potency | activity change, negative = inhibition |
| --- | --- | --- |
| Cn1nc(-c2ccc(Cl)cc2)c2cc(C(=O)NCCCN3CCCC3)sc21 | active: 12.6 µM |  |
| CCOC(=O)c1c(S(=O)(=O)Nc2ccc(F)cc2Cl)c(C)n(C)c1C | inconclusive [inhibitor, partial curve] |  |
| C/C(=N/NC(=O)c1nnn(-c2nonc2N)c1COc1ccccc1)c1ccccc1Cl | inconclusive [inhibitor, full curve] |  |
| Fc1ccc(C(c2nnnn2Cc2cccs2)N2CCN(C3CCCC3)CC2)cc1 (centres undefined) | inconclusive [inhibitor, full curve] |  |
| COc1cccc(NC(=O)COC(=O)c2ccccc2SCC(=O)N2CCCC2)c1 | inactive |  |
| O=C1CS/C(=N/N=C/c2ccccc2)N1Cc1ccco1 | inconclusive [inhibitor, single point] |  |
| O=C(NCCc1ccccc1)C1CCN(S(=O)(=O)N2CCC3(CC2)OCCO3)CC1 | inactive |  |
| COc1c(C)cc(C(=O)C2CCCN(C(=O)c3cc4nc(C)cc(C)n4n3)C2)cc1C (centres undefined) | inactive |  |
| CC1CCCN(C(=O)c2ccc(Cl)c(S(=O)(=O)N3CCCCCC3)c2)C1 (centres undefined) | inconclusive [inhibitor, partial curve] |  |
| C=CC[C@H](CC(=O)N(CCO)Cc1ccccc1)C(=O)NCCOC(=O)[C@@H](CC=C)Cc1ccc(F)cc1 | inconclusive [inhibitor, partial curve] |  |
| CN1Cc2sc(NC(=S)NC(=O)c3ccccc3)c(C#N)c2CC1(C)C |  | inconclusive: -42.5% [inhibitor] |
| COC(=O)CN1C(=O)S/C(=C/c2cc(C)n(C)c2C)C1=O | inactive |  |
| COc1ccc(-c2cc(C(=O)Nc3c(Cl)cc(Cl)cc3Cl)c3ccccc3n2)cc1OC | inactive |  |
| CC(C)[C@H](NC(=O)c1ccccc1Cl)C(=O)Nc1nc(-c2ccccn2)cs1 | inconclusive [inhibitor, partial curve] |  |
| Cc1cc(=O)oc2c(O)c(O)ccc12 | inconclusive [inhibitor, partial curve] |  |
| Cc1ccc(S(=O)(=O)N2CCN(CC(=O)NC3CCCc4ccccc43)CC2)c(C)c1 (centres undefined) | inconclusive [inhibitor, partial curve] |  |
| CCc1nc(Nc2cccc(F)c2)c2oc3ccccc3c2n1 | inconclusive [inhibitor, single point] |  |
| CN(C)C(CNC(=O)c1ccc(-c2ccccc2)cc1)c1ccccc1 (centres undefined) | inconclusive [inhibitor, partial curve] |  |
| CCOc1ccc(C(=O)CC(NCc2cccs2)C(=O)O)cc1 (centres undefined) | inconclusive [inhibitor, single point] |  |
| O=C(CCl)N(CCc1ccccc1)CCc1ccccc1 | inconclusive [inhibitor, single point] |  |
| CC(C)CC(=O)NC(NC(=S)Nc1sc2c(c1C#N)CCCC2)C(Cl)(Cl)Cl (centres undefined) | inactive |  |
| COc1ccc(NC(=S)Nc2ccc(Oc3ccccc3)cc2)cc1 | inconclusive [inhibitor, single point] |  |
| CC(=O)N1CCC2(CC1)C/C(=N\NC(=S)Nc1ccc(C)cc1)c1cc(O)ccc1O2 | inconclusive [inhibitor, single point] |  |

| Compound | Potency | activity change, negative = inhibition |
| --- | --- | --- |
| O=C(N/N=C/c1nn(-c2ccccc2)cc1-c1ccccc1)c1ccncc1 | inconclusive [inhibitor, partial curve] |  |
| CSc1nc2sc3c(c2c(=O)n1C)CCCC3 | active: 11.2 µM |  |
| Cc1cc(Oc2cccc3c2S(=O)(=O)N(C2CCCC2)CC(COCc2ccccc2)O3)cc(C)c1C (centres undefined) | inactive |  |
| Cc1ccc(C(=O)c2c3ccc(C(F)(F)F)cc3[n+]([O-])n2CCCN)cc1 | inconclusive [inhibitor, partial curve] |  |
| C#CCOc1ccc(/C=N/NC(=O)c2cccnc2)cc1OCC | inconclusive [inhibitor, single point] |  |
| O=C(Nc1ccno1)Nc1ccc(Cl)cc1Cl | inconclusive [inhibitor, partial curve] |  |
| O=C(O)C1CCCCC1C(=O)Nc1ccc(S(=O)(=O)N2CCCC2)cc1 (centres undefined) | inactive |  |
| Cc1ccc(-n2ncc3c(NCc4ccc5c(c4)OCO5)ncnc32)c(C)c1 | inconclusive [inhibitor, full curve] |  |
| CCOc1ncccc1C(=O)Nc1cc(S(=O)(=O)N2CCCCC2)ccc1Cl | inactive |  |
| COc1ccc(/C=N/NC(=O)C(=O)/C=C2\NC3(CCCC3)Cc3ccccc32)cc1 | active: 10 µM |  |
| COCCN(C(=O)CSc1nc(N)cc(=O)[nH]1)c1c(N)n(Cc2ccccc2)c(=O)[nH]c1=O | inactive |  |
| Cc1ccc(C2=NC(C(F)(F)F)(C(F)(F)F)c3c(n(-c4ccc(F)cc4)c(=O)[nH]c3=O)N2)cc1 | inconclusive [inhibitor, partial curve] |  |
| CCN(CC)c1ccc(C=C(c2nnnn2-c2ccccc2)c2nnnn2-c2ccccc2)cc1 | inconclusive [inhibitor, partial curve] |  |
| COc1cc(/C=N/OCC(=O)Nc2ccc(OC(F)F)cc2)ccc1OCc1ccccc1 | inconclusive [inhibitor, partial curve] |  |
| COc1ccc(NC(=O)CN(C)C(=O)/C=C/c2cn(-c3ccccc3)nc2-c2cccs2)cc1 | inconclusive [inhibitor, single point] |  |
| Cc1ccc(S(=O)(=O)NC2c3cccc4cccc(c34)C2Sc2ncccn2)cc1 (centres undefined) | inconclusive [inhibitor, single point] |  |
| CCOC(=O)N1CCN(c2nc(-c3cccc(OC)c3)cc(C(F)(F)F)n2)CC1 | inconclusive [inhibitor, single point] |  |
| CCN1C(=O)CSc2ccc(C(=O)NCc3ccccc3OC)cc21 | inconclusive [inhibitor, partial curve, poor fit] |  |
| O=C(O)CC(NC(=O)C12CC3CC(CC(C3)C1)C2)c1ccc(Cl)cc1 (centres undefined) | inactive |  |
| Cc1cc(C(=O)NNc2ccc(Cl)cc2)no1 | inactive |  |
| CN(CCOc1ccc(Cl)cc1)C(=O)c1cc(S(=O)(=O)N2CCOCC2)ccc1N1CCCC1 | inconclusive [inhibitor, partial curve] |  |
| COCc1cc(C)nc(SCC(=O)Nc2ccc3[nH]c(=O)[nH]c3c2)c1C#N | inconclusive [inhibitor, single point] |  |
| Cc1ccc(NC(=O)CN(C)S(=O)(=O)c2cccc3nsnc23)cc1 | inconclusive [inhibitor, single point] |  |

| Compound | Potency | activity change, negative = inhibition |
| --- | --- | --- |
| COc1ccc(COC(=O)c2ccc(S(=O)(=O)N3CCCCC3)cc2)cc1OC | inactive |  |
| COc1ccc(NC2=NC(=S)N(c3ccc(C)cc3)C23CCCCC3)cc1 | inactive |  |
| CC(=O)c1cccc(NC(=O)c2cnn(-c3ccccc3)c2C)c1 | inactive |  |
| CC(=O)c1cc2c(s1)-c1cc(F)ccc1OC2 | inactive |  |
| CCc1ccc(CNC(=O)Cn2nc(-c3ccccc3)ccc2=O)cc1 | inconclusive [inhibitor, single point] |  |
| Cc1c(C(=O)NCc2ccoc2)oc2ccc3c(c12)C(=O)CC(C)(C)O3 | inconclusive [inhibitor, partial curve] |  |
| CC1=CC2=NC(=O)/C(=C\c3cccn3CCOc3cccc(C)c3)C(=N)N2O1 | inconclusive [inhibitor, single point] |  |
| C/C(=N\NC(=O)c1cc(C)[nH]n1)c1cccs1 | inactive |  |
| COc1ccc(C(C)=O)cc1CSc1nnc(Nc2ccc(C)cc2)s1 | inconclusive [inhibitor, single point] |  |
| CCN(CC)S(=O)(=O)c1ccc(N2CCOCC2)c(NC(=O)c2[nH]c(C)c(C(C)=O)c2C)c1 | inconclusive [inhibitor, single point] |  |
| O=C(N/N=C1/CN2CCC1CC2)c1cccc(O)c1 | inactive |  |
| CC(C)(C)c1ccc(OCC(=O)N/N=C/c2cc(Br)ccc2OC(=O)c2ccco2)cc1 | inconclusive [inhibitor, partial curve] |  |
| O=C(COC(=O)c1ccc2[nH]c3c(c2c1)CCCC3)Nc1ccccc1Cl | inconclusive [inhibitor, single point] |  |
| COc1cc(OC)c(NC(=O)c2c(-c3ccccc3)noc2C)cc1Cl | inconclusive [inhibitor, partial curve] |  |
| Cc1ccccc1SCC(=O)N1CCN(c2ccc(C(F)(F)F)cn2)CC1 | inconclusive [inhibitor, single point] |  |
| CCC/C(=N\NC(=O)c1ccco1)c1ccc(Cl)s1 | inconclusive [inhibitor, full curve, poor fit] |  |
| Cc1cccc(NC(=O)CCN2CCCC(C)C2)c1 (centres undefined) | inactive |  |
| COc1ccc(-n2c(SCC3OCCO3)nc3c(sc(=S)n3-c3ccccc3)c2=O)cc1OC | inconclusive [inhibitor, single point] |  |
| NC(=O)Cc1ccc(C(=O)c2ccccc2)s1 | inactive |  |
| Cc1cc(C)cc(N(CC(=O)NCc2ccco2)S(=O)(=O)c2ccccc2)c1 | inactive |  |
| CC(=O)N(CCC(c1ccco1)C(C)C)Cc1ccc(OC(C)C)cc1 (centres undefined) | inconclusive [inhibitor, single point] |  |
| Cc1cccc(N2CCN(C(=O)C3CCN(S(=O)(=O)c4cnc[nH]4)CC3)CC2)c1C | inconclusive [inhibitor, single point] |  |
| COc1ccc(Cl)cc1NC(=O)CN1C(=O)NC2(CCCC2)C1=O | inconclusive [inhibitor, single point] |  |
